Screen size: about 50,000 compounds; about 800 (1.6%) showed an effect of 50% or more. Some of the results follow.
Biological target: Bcl-2-like protein 10 (Homo sapiens) (UniProt Q9HD36)
Experiment: TR3 peptide-Bcl-B binding displacers, biochemical primary FP assay, phenotype converters (AID 1240);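 further: 0% = Bcl-B with tracer peptide and DMSO and 100% = tracer peptide lacking Bcl-B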
Conditions: GST-Bcl-B / FITC-TR3 peptide fluorescence polarization; stronger effect = higher value; compound at 3.75 mg/L

UniProt Q9HD36, sequence (Q9HD36 whole entry, looked up): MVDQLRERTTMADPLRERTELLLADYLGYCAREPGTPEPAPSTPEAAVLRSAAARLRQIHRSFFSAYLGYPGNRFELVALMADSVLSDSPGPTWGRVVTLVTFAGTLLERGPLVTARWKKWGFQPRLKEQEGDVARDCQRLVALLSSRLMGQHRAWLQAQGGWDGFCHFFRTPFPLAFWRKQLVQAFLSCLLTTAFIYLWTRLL

Structure (SMILES)	displacement [%]
CCOc1cc(C2Nc3cc(C)c(C)cc3NC3=C2C(=O)CC(C)(C)C3)cc([N+](=O)[O-])c1O (stereo unspecified)	1.6
O=C(Nc1c(F)c(F)c(F)c(F)c1F)c1cccc(F)c1	5.3
Cc1ccc(C(=O)Nc2ccccc2C(=O)N2CC(C)OC(C)C2)cc1 (stereo unspecified)	3.9
Cc1ccc(-c2nnc(-c3ccc4c(c3)OCO4)o2)cc1C	-8.2
Cc1ccccc1NC(=O)C(=O)NCC(C)C	11.7
COc1ccccc1NC(=O)c1cc(-c2ccc(C)cc2C)nc2ccccc12	-8.6
COc1ccc(N=Cc2cccs2)cc1	-8.4
O=C(O/N=C(/c1ccncc1)c1ccc([N+](=O)[O-])cc1)c1cccc(Br)c1	-5.7
COc1ccc(C(=O)N2CCCCCC2)cc1	-5.3
CC(N=Cc1ccccc1O)C12CC3CC(CC(O)(C3)C1)C2 (stereo unspecified)	3.2
CC(=O)Nc1nonc1-c1nc2ccccc2n1Cc1ccc([N+](=O)[O-])cc1	8.1
CCOc1cc(/C=C2\Sc3ccccc3C2=O)ccc1OC	0.2
CC(C)(C)NC(=O)CN(c1ccc(Cl)cc1)S(C)(=O)=O	12.2
CC(C)(C)C(=O)NNC(=O)c1cc(Cl)ccc1O	-15.8
Cc1ccccc1CNC(=O)CSc1ccc(Cl)cc1	1.9
Cc1cccc(C(=O)NC(NC(=O)c2cccc(C)c2)c2cccc([N+](=O)[O-])c2)c1	13.1
O=C1CC(N2CCN(Cc3ccccc3)CC2)C(=O)N1c1cccc(Cl)c1 (stereo unspecified)	-2.9
CCCCOc1ccc(/C=N/Nc2cc(OC)ncn2)cc1	-8.4
COC(=O)c1ccccc1NC(=O)c1cnccn1	4.3
O=c1oc(-c2ccccc2)nc2sc3c(c12)CCCC3	11.4
CC(=O)N/N=C/c1cc(C)n(-c2ccc(Cl)cc2Cl)c1C	-7.1
Cn1c(COc2nnc(-c3ccccc3)c3ccccc23)nc2ccccc21	13.9
Cc1cc(C)n(C(=O)COc2ccc(Br)cc2)n1	1.2

Structure (SMILES)	displacement [%]
COc1ccc(Nc2nnc(-c3ccc(C(=O)NCCO)cc3)c3ccccc23)cc1	8.1
CCOC(=O)CSc1nnc(-c2cccc(Br)c2)o1	13.1
CCC(=O)Nc1nc(C)c(-c2csc(Nc3ccc(N(C)C)cc3)n2)s1	10.1
CC(=O)Oc1c(-c2ccc(Cl)cc2)c2nc3ccccc3nc2c2ccccc12	-1.4
COc1ccc(CN2CCN(Cc3cccc([N+](=O)[O-])c3)CC2)c(OC)c1	-10.4
C=CCOc1ccc(/C=C2\SC(N)=NC2=O)cc1OC	7.1
NC(=O)C1(S(=O)(=O)c2ccccc2)CCCCC1	14.5
Cc1cc2nc(-c3cccc(NC(=O)c4ccc(Br)o4)c3)oc2cc1C	41.3
COc1ccc(/C=C(/C#N)C(=O)Nc2cccc(C(F)(F)F)c2)cc1	7
CC(=O)Nc1ccc(Sc2ccc(NC(C)=O)cc2)cc1	-4
O=[N+]([O-])c1ccc(N2CCOCC2)cc1NC1CC1	4
Cc1ccc(C(=O)CCNc2cccc(Cl)c2)o1	-20.5
O=C(Nc1ccc(Cl)cc1)c1ccc(S(=O)(=O)c2ccccc2)cc1	-3.6
Cc1onc(-c2ccccc2)c1C(=O)NCc1cccnc1	8.7
CCOc1cc(C(=O)Nc2ccc(Br)cn2)cc(OCC)c1OCC	-0.6
CC1CCCCN1C(=O)Nc1ccccc1 (stereo unspecified)	12.8
O=C1C(Nc2ccc(Cl)cc2)=C(N2CCCCC2)C(=O)c2ccccc21	-11.5
Cc1ccc(N(CC(=O)Nc2ccc3ccccc3c2)S(C)(=O)=O)cc1Cl	10.4
COc1ccccc1N1C(=O)CC(Sc2ccccc2C(=O)O)C1=O (stereo unspecified)	2.5
O=C(NCCc1ccccc1F)C1CC(=O)N(c2ccc(Br)cc2)C1 (stereo unspecified)	-4.4
COC(=O)c1cc(Cl)c(NC(=O)c2cc(OC)c(OC)c(OC)c2)cc1OC	-8.1
Cc1cccc2c(=O)oc(-c3cccc([N+](=O)[O-])c3)nc12	-6.2
COc1ccc(NC(=O)C2=C(C)NC(=O)NC2c2cccc(Cl)c2)cc1 (stereo unspecified)	83.7

Structure (SMILES)	displacement [%]
O=C1NC(=S)N(c2ccc(Br)cc2)C(=O)/C1=C/c1cccs1	16.2
Cc1sc2nc(SCc3ccc(C(=O)NCCO)cc3)[nH]c(=O)c2c1C	-31.9
COC(=O)c1ccc(-c2ccc(CO)o2)cc1	-3.4
COc1cc(/C=N/Nc2nc(Nc3ccccc3)nc(N3CCOCC3)n2)ccc1OCc1ccccc1	-1.1
COC(=O)c1cccc(-c2ccc(/C=C3\C(=O)N(c4cccc(C(=O)O)c4)N=C3C)o2)c1	17.3
CN(C)C1(C)CC2C(C/C1=N\O)C2(C)C (stereo unspecified)	12.1
COc1cc(/C=C2/SC(=S)N(C)C2=O)cc(Cl)c1OCCOc1ccc(C)cc1	0.7
COc1ccc(CN2CCN(Cc3ccc4ccccc4c3)CC2)c(OC)c1	-1
N#C/C(=C/c1ccc([N+](=O)[O-])o1)C(=O)Nc1cccc(Br)c1	9.1
COc1cccc(/C=C2\SC(=O)N(CCC(=O)NNC(=O)c3cccc(Cl)c3)C2=O)c1	-1.6
CC(=O)CC(=O)Nc1ccnn1-c1ccccc1	8.6
O=C(COc1ccccc1)N1CCN(c2ccc([N+](=O)[O-])cc2Cl)CC1	-7
Cc1cc(C(C)(C)C)ccc1OC(=O)Nc1ccccc1	-0.3
CNC(=S)NCC12CC3CC(CC(C3)C1)C2	-2.7
Cc1cccnc1NC(=O)Cc1ccc([N+](=O)[O-])cc1	3.1
C=CCC1NC2(CCCCC2)Cc2cc(OC)c(OC)cc21 (stereo unspecified)	-19.4
NS(=O)(=O)c1ccc(NC(=O)CSCCOC(=O)c2cc3ccccc3o2)cc1	9.8
Cc1cc(C)cc(N2C(=O)NC(=O)/C(=C\c3ccc(C(=O)O)cc3)C2=O)c1	-7.2
CCc1ccc(C2(c3ccc(CC)cc3)C(=O)NCc3ccccc32)cc1	10.9
COc1ccc(CCN=Cc2cccn2-c2sc3c(c2C#N)CCCC3)cc1OC	22.8
COc1ccccc1C(=O)OC1CC(C)N(C)CC1C (stereo unspecified)	9
COc1cc2c(cc1NS(=O)(=O)c1ccccc1)oc1ccccc12	9.5
C=CCOc1c(Br)cc(/C=C2/N=C(c3ccccc3)OC2=O)cc1OC	-4.9

Structure (SMILES)	displacement [%]
O=C(Nc1cccc(-c2nc3cc(Cl)ccc3o2)c1)c1ccc(Cl)cc1	0.2
O=C(Nc1cccc(C(F)(F)F)c1)c1cc([N+](=O)[O-])ccc1Cl	-13.5
Cc1cccc(NC(=O)C2CC(=O)N=C(N)S2)c1 (stereo unspecified)	15.4
O=C(NC(=S)Nc1ccc(Cl)c(Cl)c1)c1ccco1	10.7
COc1cc(C(=O)Nc2cc(-c3nc4cc(Cl)cc(Cl)c4o3)ccc2C)cc(OC)c1OC	-0.3
Cc1ccc(C(=O)Nc2ccc(S(=O)(=O)N3CCCCC3)cc2)cc1	-5.3
O=C1CC(c2ccc(F)c(F)c2)c2cc(Br)c3ccccc3c2N1 (stereo unspecified)	-6.1
CCOC(=O)C(CCCCCOc1ccc(F)cc1)C(=O)OCC	12.1
Clc1ccc(N2CCN(N=Cc3ccccc3Br)CC2)cc1	-5.3
Cc1nc2n(CC(=O)N3CCCC3)c3ccccc3n2n1	-3.1
O=C(NC1CCCCC1)c1c(F)cccc1F	-1
O=C(O)C1(O[N+](=O)[O-])C2CC3CC(C2)CC1C3 (stereo unspecified)	-13.3
COc1ccc(CN2CCN(C3CCCC(C)C3)CC2)c(OC)c1OC (stereo unspecified)	-17.3
COc1cc(C2/C(=C(\O)c3ccc(Cl)cc3)C(=O)C(=O)N2CCCCCC(=O)O)ccc1O (stereo unspecified)	0.6
COc1ccc(/C=C/C(=O)Nc2ccc(F)c([N+](=O)[O-])c2)cc1	17.4
CCN1C(=O)/C(=C/c2cn(-c3ccccc3)nc2-c2cc3ccccc3n2C)SC1=S	-20.2
O=C1C2C3C=CC(C3)C2C(=O)N1c1ncccn1 (stereo unspecified)	-3.6
O=C(/C(=C\c1ccc([N+](=O)[O-])cc1)n1cncn1)c1ccc(Cl)cc1Cl	9.9
O=C(NCCN1CCOCC1)c1cc(Cl)ccc1Cl	13.8
O=C(N/N=C/c1cccc(O)c1)c1n[nH]c2c1CCC2	-10.1
CSc1ccc(/C=C(/NC(=O)c2ccc(C)cc2)c2nc3ccccc3[nH]2)cc1	-7.3
CC(=O)NC(NC(C)=O)c1ccccc1Cl	-4.6
Cn1c(=O)cc2c3c(c(N4CCCC4)ccc31)C(=O)c1ccccc1-2	38.2

Structure (SMILES)	displacement [%]
O=[N+]([O-])c1ccc(CN2CCN(S(=O)(=O)c3ccc(Cl)cc3)CC2)cc1	-0.2
C/C(=N\NC(=O)C(C)Sc1nc(C)cc(C)n1)c1ccc(Br)cc1 (stereo unspecified)	5.3
COc1ccccc1OCC(=O)Nc1cccc(C(=O)O)c1	-4.4
Cc1ccccc1NC(=O)CSc1nc(O)c(Cc2ccccc2)c(=O)n1-c1ccccc1	4.9
Oc1c(C2=NCCCCC2)c2ccccc2n1-c1c(Cl)cccc1Cl	-2.7
CC(C)=CCCC(C)CC1OCC(C)O1 (stereo unspecified)	-13
COc1cccc(NC(=O)/C(=C/c2ccccc2)NC(C)=O)c1	12.4
CN(C)CCCCCCCCCCNC(=O)/C=N\O	2.1
Cc1c(N2C(=O)S/C(=C\c3cccc([N+](=O)[O-])c3)C2=O)c(=O)n(-c2ccccc2)n1C	4
COc1ccc(NC(=O)c2cnn(-c3ccccc3)c2NC(=O)c2ccc(C)cc2)cc1	3.7
CC1C(c2ccccc2)NC(c2ccccc2)C(C)C1O (stereo unspecified)	1.6
Cc1cccc(OCCOc2ccccc2/C=C2/SC(=S)N(C)C2=O)c1	-0.4
Cc1cc(NC(=O)c2cccc(F)c2)ccc1NC(=O)c1ccccc1	-3.3
COc1cccc(/C=N/N=C(\N)c2nonc2N)c1O	-21.9
COc1cccc(CN2CCN(C3CCN(Cc4ccccc4)CC3)CC2)c1	-0.2
Cc1cc(F)c(F)c(C(=O)N2CCN(c3cc(N4CCCCC4)c(F)cc3[N+](=O)[O-])CC2)c1Cl	-8
CCOCCOC(=O)C1=C(C)NC2=C(C(=O)CCC2)C1c1cccc(Cl)c1 (stereo unspecified)	4.1
O=C(Nc1sc2c(c1C(=O)Nc1ccccc1)CCCCC2)c1ccc([N+](=O)[O-])cc1	0.2
O=C(COc1ccccc1)Nc1ccc(Cl)cn1	15

Source: PubChem BioAssay AID1240 (Sanford-Burnham Center for Chemical Genomics, 2008)
